Some of the results follow.
Molecular target: T1, MBP-FoxP1dN (Mus musculus, UniProt P58462 326-579)
T1 sequence: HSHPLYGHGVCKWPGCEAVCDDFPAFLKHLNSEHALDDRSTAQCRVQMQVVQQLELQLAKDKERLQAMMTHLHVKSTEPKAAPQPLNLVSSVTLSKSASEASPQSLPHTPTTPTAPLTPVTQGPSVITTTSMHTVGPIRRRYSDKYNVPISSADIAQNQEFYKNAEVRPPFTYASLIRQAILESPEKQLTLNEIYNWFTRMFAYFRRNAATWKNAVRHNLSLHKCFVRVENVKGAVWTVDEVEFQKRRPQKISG
Assay: PD-seq (MBP pull-down with sequencing); 20 mM Tris-HCl pH 7.5, 100 mM NaCl, 1.5 mM MgCl2, 0.4 uM protein, 0.1 uM dsDNA library, 30 min, room temperature, amylose pull-down; high values mean tight binding
Conditions: protein: recombinant; tags: His6-MBP; chain copies: 2; dsDNA, one strand shown
In short: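 A fragment of mouse FoxP3 or FoxP1 without its N-terminus, carrying a His6-MBP tag and produced in E. coli, was combined at 0.4 µM with a 0.1 µM degenerate double-stranded DNA library filled in with Klenow. The mixture sat for 30 min at room temperature in Tris pH 7.5 buffer containing NaCl and MgCl2. Protein–DNA complexes were captured on amylose resin, washed three times, and the DNA was freed with proteinase K, barcoded by PCR and sequenced on Illumina. Binding is expressed as reads-per-million enrichment of pull-down over input, with replicates pooled.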

| Sequence | binding signal |
| --- | --- |
| GATGATTGTTCTCCCAGCTGATGAATTGATTCTCTCGAGTAAACAAATTTTCCTAATCTTTCTGTTCAAGCGCCATCTAC | 1.03 RPM ratio (pull-down/input) |
| GATGATTGTTCTCCCAGCTGATGAATTTGCAGGTTCGAGTAAACAAATTTTCCTAATCTTTCTGTTCAAGCGCCATCTAC | 0.786 RPM ratio (pull-down/input) |
| GATGATTGTTCTCCCAGCTGATGAATTCGTTGCCTCGAGTAAACAAATTTTCCTAATCTTTCTGTTCAAGCGCCATCTAC | 0.953 RPM ratio (pull-down/input) |
| GATGATTGTTCTCCCAGCTGATGAATTATACACATCGAGTAAACAAATTTTCCTAATCTTTCTGTTCAAGCGCCATCTAC | 1.62 RPM ratio (pull-down/input) |
| GATGATTGTTCTCCCAGCTGATGAATTACCATTGTCGAGTAAACAAATTTTCCTAATCTTTCTGTTCAAGCGCCATCTAC | 1.04 RPM ratio (pull-down/input) |
| GATGATTGTTCTCCCAGCTGATGAATTTCTTGGCTCGAGTAAACAAATTTTCCTAATCTTTCTGTTCAAGCGCCATCTAC | 0.811 RPM ratio (pull-down/input) |
| GATGATTGTTCTCCCAGCTGATGAATTTCCTCCGTCGAGTAAACAAATTTTCCTAATCTTTCTGTTCAAGCGCCATCTAC | 0.887 RPM ratio (pull-down/input) |
| GATGATTGTTCTCCCAGCTGATGAATTGAATGTCTCGAGTAAACAAATTTTCCTAATCTTTCTGTTCAAGCGCCATCTAC | 0.84 RPM ratio (pull-down/input) |
| GATGATTGTTCTCCCAGCTGATGAATTCTCTATATCGAGTAAACAAATTTTCCTAATCTTTCTGTTCAAGCGCCATCTAC | 0.94 RPM ratio (pull-down/input) |
| GATGATTGTTCTCCCAGCTGATGAATTAAGCGGTTCGAGTAAACAAATTTTCCTAATCTTTCTGTTCAAGCGCCATCTAC | 0.979 RPM ratio (pull-down/input) |
| GATGATTGTTCTCCCAGCTGATGAATTGGCATCGTCGAGTAAACAAATTTTCCTAATCTTTCTGTTCAAGCGCCATCTAC | 0.938 RPM ratio (pull-down/input) |
| GATGATTGTTCTCCCAGCTGATGAATTACTTTGCTCGAGTAAACAAATTTTCCTAATCTTTCTGTTCAAGCGCCATCTAC | 1.02 RPM ratio (pull-down/input) |
| GATGATTGTTCTCCCAGCTGATGAATTCGCACCTTCGAGTAAACAAATTTTCCTAATCTTTCTGTTCAAGCGCCATCTAC | 0.893 RPM ratio (pull-down/input) |
| GATGATTGTTCTCCCAGCTGATGAATTTTAGCTATCGAGTAAACAAATTTTCCTAATCTTTCTGTTCAAGCGCCATCTAC | 0.97 RPM ratio (pull-down/input) |
| GATGATTGTTCTCCCAGCTGATGAATTTGCTCGATCGAGTAAACAAATTTTCCTAATCTTTCTGTTCAAGCGCCATCTAC | 0.994 RPM ratio (pull-down/input) |
| GATGATTGTTCTCCCAGCTGATGAATTTATCATGTCGAGTAAACAAATTTTCCTAATCTTTCTGTTCAAGCGCCATCTAC | 1.15 RPM ratio (pull-down/input) |
| GATGATTGTTCTCCCAGCTGATGAATTCTTAGGATCGAGTAAACAAATTTTCCTAATCTTTCTGTTCAAGCGCCATCTAC | 0.802 RPM ratio (pull-down/input) |
| GATGATTGTTCTCCCAGCTGATGAATTCGGATTTTCGAGTAAACAAATTTTCCTAATCTTTCTGTTCAAGCGCCATCTAC | 0.958 RPM ratio (pull-down/input) |
| GATGATTGTTCTCCCAGCTGATGAATTTCCAGTTTCGAGTAAACAAATTTTCCTAATCTTTCTGTTCAAGCGCCATCTAC | 0.804 RPM ratio (pull-down/input) |
| GATGATTGTTCTCCCAGCTGATGAATTGTTCGTTTCGAGTAAACAAATTTTCCTAATCTTTCTGTTCAAGCGCCATCTAC | 1.15 RPM ratio (pull-down/input) |
| GATGATTGTTCTCCCAGCTGATGAATTTCGAAGCTCGAGTAAACAAATTTTCCTAATCTTTCTGTTCAAGCGCCATCTAC | 0.756 RPM ratio (pull-down/input) |

| Sequence | binding signal |
| --- | --- |
| GATGATTGTTCTCCCAGCTGATGAATTAAGACTCTCGAGTAAACAAATTTTCCTAATCTTTCTGTTCAAGCGCCATCTAC | 0.773 RPM ratio (pull-down/input) |
| GATGATTGTTCTCCCAGCTGATGAATTCGGACATTCGAGTAAACAAATTTTCCTAATCTTTCTGTTCAAGCGCCATCTAC | 0.883 RPM ratio (pull-down/input) |
| GATGATTGTTCTCCCAGCTGATGAATTTGAGTTGTCGAGTAAACAAATTTTCCTAATCTTTCTGTTCAAGCGCCATCTAC | 1.19 RPM ratio (pull-down/input) |
| GATGATTGTTCTCCCAGCTGATGAATTCAGATAGTCGAGTAAACAAATTTTCCTAATCTTTCTGTTCAAGCGCCATCTAC | 0.848 RPM ratio (pull-down/input) |
| GATGATTGTTCTCCCAGCTGATGAATTGTTACCGTCGAGTAAACAAATTTTCCTAATCTTTCTGTTCAAGCGCCATCTAC | 1.21 RPM ratio (pull-down/input) |
| GATGATTGTTCTCCCAGCTGATGAATTGCCTGCATCGAGTAAACAAATTTTCCTAATCTTTCTGTTCAAGCGCCATCTAC | 1.21 RPM ratio (pull-down/input) |
| GATGATTGTTCTCCCAGCTGATGAATTGTTCACTTCGAGTAAACAAATTTTCCTAATCTTTCTGTTCAAGCGCCATCTAC | 1.1 RPM ratio (pull-down/input) |
| GATGATTGTTCTCCCAGCTGATGAATTGTGACCATCGAGTAAACAAATTTTCCTAATCTTTCTGTTCAAGCGCCATCTAC | 1.16 RPM ratio (pull-down/input) |
| GATGATTGTTCTCCCAGCTGATGAATTAGACCAATCGAGTAAACAAATTTTCCTAATCTTTCTGTTCAAGCGCCATCTAC | 0.965 RPM ratio (pull-down/input) |
| GATGATTGTTCTCCCAGCTGATGAATTAGTACTCTCGAGTAAACAAATTTTCCTAATCTTTCTGTTCAAGCGCCATCTAC | 0.952 RPM ratio (pull-down/input) |
| GATGATTGTTCTCCCAGCTGATGAATTTAGCCAGTCGAGTAAACAAATTTTCCTAATCTTTCTGTTCAAGCGCCATCTAC | 0.865 RPM ratio (pull-down/input) |
| GATGATTGTTCTCCCAGCTGATGAATTAAATAGATCGAGTAAACAAATTTTCCTAATCTTTCTGTTCAAGCGCCATCTAC | 1.09 RPM ratio (pull-down/input) |
| GATGATTGTTCTCCCAGCTGATGAATTGACAAGTTCGAGTAAACAAATTTTCCTAATCTTTCTGTTCAAGCGCCATCTAC | 1.29 RPM ratio (pull-down/input) |
| GATGATTGTTCTCCCAGCTGATGAATTGAATTCGTCGAGTAAACAAATTTTCCTAATCTTTCTGTTCAAGCGCCATCTAC | 0.818 RPM ratio (pull-down/input) |
| GATGATTGTTCTCCCAGCTGATGAATTATTTGGTTCGAGTAAACAAATTTTCCTAATCTTTCTGTTCAAGCGCCATCTAC | 1.19 RPM ratio (pull-down/input) |
| GATGATTGTTCTCCCAGCTGATGAATTGGGTCCTTCGAGTAAACAAATTTTCCTAATCTTTCTGTTCAAGCGCCATCTAC | 0.85 RPM ratio (pull-down/input) |
| GATGATTGTTCTCCCAGCTGATGAATTCAGTGGATCGAGTAAACAAATTTTCCTAATCTTTCTGTTCAAGCGCCATCTAC | 0.832 RPM ratio (pull-down/input) |
| GATGATTGTTCTCCCAGCTGATGAATTATCGCCATCGAGTAAACAAATTTTCCTAATCTTTCTGTTCAAGCGCCATCTAC | 0.996 RPM ratio (pull-down/input) |
| GATGATTGTTCTCCCAGCTGATGAATTTCAAGATTCGAGTAAACAAATTTTCCTAATCTTTCTGTTCAAGCGCCATCTAC | 0.833 RPM ratio (pull-down/input) |
| GATGATTGTTCTCCCAGCTGATGAATTAGAGCCCTCGAGTAAACAAATTTTCCTAATCTTTCTGTTCAAGCGCCATCTAC | 0.741 RPM ratio (pull-down/input) |
| GATGATTGTTCTCCCAGCTGATGAATTCTTCCCTTCGAGTAAACAAATTTTCCTAATCTTTCTGTTCAAGCGCCATCTAC | 0.873 RPM ratio (pull-down/input) |

| Sequence | binding signal |
| --- | --- |
| GATGATTGTTCTCCCAGCTGATGAATTTCCAAGTTCGAGTAAACAAATTTTCCTAATCTTTCTGTTCAAGCGCCATCTAC | 0.843 RPM ratio (pull-down/input) |
| GATGATTGTTCTCCCAGCTGATGAATTTTATTCATCGAGTAAACAAATTTTCCTAATCTTTCTGTTCAAGCGCCATCTAC | 0.976 RPM ratio (pull-down/input) |
| GATGATTGTTCTCCCAGCTGATGAATTGGTAGTCTCGAGTAAACAAATTTTCCTAATCTTTCTGTTCAAGCGCCATCTAC | 0.948 RPM ratio (pull-down/input) |
| GATGATTGTTCTCCCAGCTGATGAATTATTCCGCTCGAGTAAACAAATTTTCCTAATCTTTCTGTTCAAGCGCCATCTAC | 0.9 RPM ratio (pull-down/input) |
| GATGATTGTTCTCCCAGCTGATGAATTAAGCATATCGAGTAAACAAATTTTCCTAATCTTTCTGTTCAAGCGCCATCTAC | 0.99 RPM ratio (pull-down/input) |
| GATGATTGTTCTCCCAGCTGATGAATTACACTCGTCGAGTAAACAAATTTTCCTAATCTTTCTGTTCAAGCGCCATCTAC | 1.15 RPM ratio (pull-down/input) |
| GATGATTGTTCTCCCAGCTGATGAATTTACGACGTCGAGTAAACAAATTTTCCTAATCTTTCTGTTCAAGCGCCATCTAC | 1.19 RPM ratio (pull-down/input) |
| GATGATTGTTCTCCCAGCTGATGAATTGCTGGCATCGAGTAAACAAATTTTCCTAATCTTTCTGTTCAAGCGCCATCTAC | 1.06 RPM ratio (pull-down/input) |
| GATGATTGTTCTCCCAGCTGATGAATTCTCATCTTCGAGTAAACAAATTTTCCTAATCTTTCTGTTCAAGCGCCATCTAC | 0.835 RPM ratio (pull-down/input) |
| GATGATTGTTCTCCCAGCTGATGAATTCGGGTCATCGAGTAAACAAATTTTCCTAATCTTTCTGTTCAAGCGCCATCTAC | 0.906 RPM ratio (pull-down/input) |
| GATGATTGTTCTCCCAGCTGATGAATTAGTTGATTCGAGTAAACAAATTTTCCTAATCTTTCTGTTCAAGCGCCATCTAC | 1.1 RPM ratio (pull-down/input) |
| GATGATTGTTCTCCCAGCTGATGAATTATTACAGTCGAGTAAACAAATTTTCCTAATCTTTCTGTTCAAGCGCCATCTAC | 1.07 RPM ratio (pull-down/input) |
| GATGATTGTTCTCCCAGCTGATGAATTGAGGGGATCGAGTAAACAAATTTTCCTAATCTTTCTGTTCAAGCGCCATCTAC | 0.839 RPM ratio (pull-down/input) |
| GATGATTGTTCTCCCAGCTGATGAATTAGGTGTATCGAGTAAACAAATTTTCCTAATCTTTCTGTTCAAGCGCCATCTAC | 1.2 RPM ratio (pull-down/input) |
| GATGATTGTTCTCCCAGCTGATGAATTACGCGGATCGAGTAAACAAATTTTCCTAATCTTTCTGTTCAAGCGCCATCTAC | 0.908 RPM ratio (pull-down/input) |
| GATGATTGTTCTCCCAGCTGATGAATTATTACCCTCGAGTAAACAAATTTTCCTAATCTTTCTGTTCAAGCGCCATCTAC | 0.999 RPM ratio (pull-down/input) |
| GATGATTGTTCTCCCAGCTGATGAATTCTAGCCGTCGAGTAAACAAATTTTCCTAATCTTTCTGTTCAAGCGCCATCTAC | 0.848 RPM ratio (pull-down/input) |
| GATGATTGTTCTCCCAGCTGATGAATTAAACATATCGAGTAAACAAATTTTCCTAATCTTTCTGTTCAAGCGCCATCTAC | 1.4 RPM ratio (pull-down/input) |
| GATGATTGTTCTCCCAGCTGATGAATTAGCCTATTCGAGTAAACAAATTTTCCTAATCTTTCTGTTCAAGCGCCATCTAC | 0.875 RPM ratio (pull-down/input) |
| GATGATTGTTCTCCCAGCTGATGAATTTGACGAATCGAGTAAACAAATTTTCCTAATCTTTCTGTTCAAGCGCCATCTAC | 0.846 RPM ratio (pull-down/input) |
| GATGATTGTTCTCCCAGCTGATGAATTATTCCTGTCGAGTAAACAAATTTTCCTAATCTTTCTGTTCAAGCGCCATCTAC | 0.964 RPM ratio (pull-down/input) |
